Assay results taken from the supplement of paper PMC3334620.
The full ranking holds about 33,000 sequences; the median of “E-score (-0.5 to 0.5)” is about -0.012, and the highest 2% start at about 0.27. The list shows a part of the results.

Each sequence was assayed against T1, Vhr1 (UniProt P40522) (assay: PBM E-score (8-mer binding enrichment) (E-score (-0.5 to 0.5)); higher = stronger / more preferred TF binding; most listed sequences are background and not binding sites). Conditions: protein concentration: 200 nM; construct: GST-full length.
T1 sequence: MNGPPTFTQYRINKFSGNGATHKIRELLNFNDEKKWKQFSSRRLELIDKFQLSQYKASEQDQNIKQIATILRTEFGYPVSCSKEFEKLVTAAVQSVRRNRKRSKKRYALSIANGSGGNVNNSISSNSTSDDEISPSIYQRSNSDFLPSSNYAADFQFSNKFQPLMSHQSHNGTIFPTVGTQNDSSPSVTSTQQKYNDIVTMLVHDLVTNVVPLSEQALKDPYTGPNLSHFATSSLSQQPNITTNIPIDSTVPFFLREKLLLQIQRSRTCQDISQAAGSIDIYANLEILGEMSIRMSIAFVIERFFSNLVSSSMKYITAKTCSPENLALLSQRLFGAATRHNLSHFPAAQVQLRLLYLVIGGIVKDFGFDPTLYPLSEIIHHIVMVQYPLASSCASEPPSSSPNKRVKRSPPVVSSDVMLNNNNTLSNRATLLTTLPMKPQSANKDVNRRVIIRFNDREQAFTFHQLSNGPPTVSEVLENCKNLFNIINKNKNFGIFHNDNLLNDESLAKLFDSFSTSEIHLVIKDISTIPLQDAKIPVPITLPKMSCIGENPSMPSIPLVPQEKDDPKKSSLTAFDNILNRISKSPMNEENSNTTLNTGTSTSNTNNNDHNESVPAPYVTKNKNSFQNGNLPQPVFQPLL
Method in brief: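 Bound GST-tagged yeast transcription factors, applied at about 100-200 nM to double-stranded universal all-10-mer Agilent arrays, were detected with fluorescent anti-GST. Scans were normalised with masliner. A modified Wilcoxon-Mann-Whitney statistic, the E-score, was assigned to each ungapped eight-base word pooled with its reverse complement by the Universal PBM Analysis Suite.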

Sequence	PBM E-score
ACATTATC	0.115
AATTCCTA	0.103
CTAGGCAG	-0.0785
ACGGTACC	-0.0221
ATGTACAA	0.00877
CGCTCCTC	-0.252
TAACCAGA	-0.0941
ACTGCCAT	-0.0286
ACAATATA	0.221
CTATGCAA	-0.0565
CTCCAGTA	0.0593
GCTGTGTA	0.239
CTCTAAGC	-0.0218
ACAAAGAC	-0.0296
CATAGGGA	0.0674
CCCCCTCA	-0.317
ATGCGAGC	0.104
ACTCTGCT	-0.124
CCACACTC	-0.0226
GCACGTAC	-0.0574
ACACTTTC	-0.0279
ATACAAAA	0.108
CATCAGTC	0.124
ACCTAGGC	-0.155
ACGCAGTG	-0.0361

Sequence	PBM E-score
ACCCCAAC	-0.0535
ACGTGGAT	0.0503
CCGAATAG	-0.0344
TTCCCGAA	-0.0124
TCCTACGA	-0.078
AAGCTCTC	-0.207
AGTGGGGA	0.0039
ATATATAA	0.247
AAATTGAC	-0.0349
CCTTTTAG	-0.228
CCCGTATA	-0.046
ATGTCTCA	0.297
ATATTTTG	0.0404
ACTGTGTA	0.246
AGTTACTC	0.0219
ACGCTATA	-0.207
TCAGAAGA	-0.227
GTCTAGTA	0.00945
ATGGCTGC	0.00596
ACGGAACG	0.0232
ACTAGTTA	0.0376
CCTAATAC	-0.0139
CAGTGGCC	-0.0187
CCCCTTGC	-0.104
CAAATAGC	-0.259

Sequence	PBM E-score
CTCCTGTA	0.15
ACGACCGC	-0.112
CTTATAAA	-0.0532
CGCAAACA	0.215
AGATTGCG	0.00995
GCGCGCTA	0.08
GTATCTCA	0.209
CACCGTCA	9e-05
GGTCGAAC	0.00191
AAGGTCGA	0.0716
GGTAGTAA	-0.193
CCACAACG	0.0129
TATCCGGA	0.035
GCCGTAAA	-0.139
CAATCGTG	0.0174
CCGGGGCG	0.0969
CATCCACG	0.158
GCCATGCA	0.0792
ATTCTTTA	-0.0759
CAGAGCTG	0.123
AATCAGAC	0.201
CTGGGAAA	-0.091
AGTCATAA	0.344
GGAGAAAA	-0.292
AGATGACA	0.0194

Sequence	PBM E-score
TCATCTAA	0.0171
ATAAATGA	0.0874
GGATACCC	0.0288
CGCGTCCA	-0.0119
CGCCTTTC	-0.197
CCGAGTCC	0.144
AAGATGCA	-0.00472
TAATTGAA	-0.232
AGACGAAA	-0.0833
CCAGCGCC	-0.0357
AATCCCAT	-0.0448
CGAGATCG	-0.00314
GATCCCGC	0.129
AGCTTCAT	0.07
CGACCCGC	0.0268
CCATATCA	0.0898
ACGCCTGG	0.172
GTTTTTTA	-0.121
CGGGCAAC	-0.0522
GTACCACA	0.0851
CATAATAG	0.158
AACTTTAC	-0.182
ATGCACCA	-0.0664
AAGCGAAT	0.14
CCGGTAGG	-0.0639

Sequence	PBM E-score
GCTTCTCA	-0.102
CACTCGGC	0.0851
AGTCTTTC	-0.0189
CCTCGGGA	-0.0287
AACTACTC	0.19
AGACATAT	0.16
CACTCGTC	-0.0397
GAACTACA	0.0295
GTGATCCA	0.00284
AAAGCCGG	0.033
CCCGACGG	-0.0105
ATAAGTTC	-0.00316
TATCGCCA	-0.0719
CATCACAA	0.0244
TATCGACA	0.126
ACAAGTCT	-0.0553
GCCCTTAA	-0.203
GAAGGGTC	-0.29
AGCGGCGC	-0.158
CGACATCA	0.0119
GGGAGCCA	0.108
AGATAGTA	0.113
GCGGCCTA	-0.00531
AACAAGAG	-0.078
CATGCCAC	0.102

Sequence	PBM E-score
AAAATTAA	-0.319
CTTTCACA	-0.0605
TACGTGAA	-0.155
CTAAGGGA	-0.0527
AATGCCTG	-0.13
AGCGGTCC	-0.076
CTACTCAG	0.153
GAACGGTC	0.0379
TCTTTTCA	-0.176
ACGCTCCC	-0.108
AAGCCATA	-0.00918
CTATGTAC	0.0252
GAGACGGC	0.0617
CGGCACCA	0.035
GATTAAGA	0.131
AATACCAA	0.144
GGATCAGA	-0.0527
AACTAATC	0.143
ATTACCAC	0.0687
AGGAAAAT	-0.159
AATATATC	0.101
GAAGCTTA	-0.257
AACTGACA	-0.00603
ATCAGTCA	0.306
ATGAACTC	0.139

Sequence	PBM E-score
CTCTTAGC	-0.0998
GAATAACA	0.171
AGGTTTGG	-0.0629
ACAAGTCC	-0.182
ATCTAGAT	-0.0279
CAGTGCCA	-0.151
ACCGGAGT	0.163
GGCTTTAC	-0.0288
AGGAGAAA	-0.178
CTCTATGA	-0.0312
AAATTGCG	0.0184
AATAGACA	-0.0158
GACCACTA	0.178
GTGTACAA	-0.0101
ATCATGGC	0.143
ACATGTCG	0.0102
GGCGCTGA	-0.033
AGTCGTCC	0.191
ACTGCCAC	0.0455
AAGCATAC	0.0271
GTTTTCAA	-0.143
GGAGCATA	0.154
